Stoichiometry N data for one molecule are collected here from paper PMC6713926.

In the test the target is T1, WT FP, recombinant oligomeric properdin (human), P27918.
T1 chain: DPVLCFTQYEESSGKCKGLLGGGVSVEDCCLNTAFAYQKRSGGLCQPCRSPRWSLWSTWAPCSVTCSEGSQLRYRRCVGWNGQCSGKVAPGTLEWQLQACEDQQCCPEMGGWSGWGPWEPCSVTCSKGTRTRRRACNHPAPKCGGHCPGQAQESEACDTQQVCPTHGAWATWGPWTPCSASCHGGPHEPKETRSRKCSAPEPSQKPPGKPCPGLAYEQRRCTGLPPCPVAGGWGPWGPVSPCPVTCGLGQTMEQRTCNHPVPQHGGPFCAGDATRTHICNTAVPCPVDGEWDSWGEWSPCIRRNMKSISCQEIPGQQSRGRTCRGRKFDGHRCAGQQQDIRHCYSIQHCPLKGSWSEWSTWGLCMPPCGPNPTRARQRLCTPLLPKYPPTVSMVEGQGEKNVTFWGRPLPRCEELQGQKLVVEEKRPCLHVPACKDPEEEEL
The test is described as follows: SEC; oligomer content of purified FP preparations on a 24 mL Superdex200 increase. Particulars: remark: other sources report otherwise.

Several values for one entry are separate records, joined by “and”; a condition that tells them apart may be missing. Identical values can stand only once.

B1: WT FP, recombinant oligomeric properdin, P27918 28-469 (natural protein)
chain: T1 chain
Broadly, the stoichiometry N is a count of units in the complex or per binding partner. For the molecule B1, the stoichiometry N is 2 and 3.
